Test results taken from the antibiotic and cytotoxicity screens of Wong et al. (2023).
This is one part of the list.

What follows are compounds tested on HepG2 (assay: cytotoxicity call (relative viability < 0.9)). Conditions: 10 µM.

| SMILES | cytotoxicity call |
| --- | --- |
| C[C@@H]1CN([C@H](C)CO)C(=O)Cc2cc(NC(=O)c3ccncc3)ccc2O[C@@H]1CN(C)Cc1ccncc1 | inactive |
| COCCNC(=O)C[C@H]1CC[C@H]2[C@H](COc3ccc(NC(=O)Nc4cccc(F)c4)cc3C(=O)N2C)O1 | inactive |
| Cc1ccc(S(=O)(=O)Nc2ccc3c(c2)C(=O)N([C@H](C)CO)C[C@H](C)[C@@H](CN(C)S(=O)(=O)c2ccc(C)cc2)OCCCC[C@H](C)O3)cc1 | inactive |
| C[C@@H]1CN([C@H](C)CO)C(=O)c2cc(NC(=O)Nc3ccc4c(c3)OCO4)ccc2O[C@@H]1CN(C)Cc1ccc(Oc2ccccc2)cc1 | active |
| C[C@@H]1CN([C@@H](C)CO)C(=O)c2cccc(NC(=O)C3CCCCC3)c2O[C@@H]1CN(C)S(=O)(=O)c1cn(C)cn1 | inactive |
| CO[C@@H]1CN(C)C(=O)c2ccc(NS(=O)(=O)CC(F)(F)F)cc2OC[C@@H](C)N(C(=O)NC(C)C)C[C@@H]1C | inactive |
| O=C(CCCCCCC(=O)Nc1ccc([C@H]2C[C@H](c3ccccc3)O[C@H](c3ccc(Oc4ccccc4)cc3)O2)cc1)NO | inactive |
| CC1=C(C(=O)O)N2C(=O)[C@@H](NC(=O)[C@H](N)c3ccc(O)cc3)[C@H]2SC1 | inactive |
| COc1ccc(S(=O)(=O)N2C[C@@H](O)COC[C@H]3O[C@H](CC(=O)NCc4ccc(Cl)c(Cl)c4)CC[C@@H]32)cc1 | inactive |
| OC[C@H]1COCc2cnnn21 | inactive |
| C[C@@H]1CCCCO[C@@H](CN(C)S(=O)(=O)c2ccc(Cl)cc2)[C@@H](C)CN([C@@H](C)CO)C(=O)c2cc(NC(=O)Nc3ccccc3)ccc2O1 | inactive |
| Cc1noc(C)c1S(=O)(=O)N(C)C[C@H]1Oc2ccc(NC(=O)CCCN(C)C)cc2C(=O)N([C@@H](C)CO)C[C@H]1C | inactive |
| CN(C)CC(=O)N[C@H]1CC[C@@H](CCNC(=O)C2CCC2)O[C@H]1CO | inactive |
| NNC(=O)CS(=O)(=O)c1ccc(Cl)cc1 | inactive |
| COc1cccc(OC)c1OCCNCCO | inactive |
| C[C@@H]1CCCCO[C@H](CN(C)C(=O)Nc2cccc3ccccc23)[C@H](C)CN([C@@H](C)CO)C(=O)c2cc(NC(=O)C3CCCCC3)ccc2O1 | inactive |
| C[C@@H]1CN([C@@H](C)CO)C(=O)c2cc(NC(=O)C3CCCCC3)ccc2O[C@@H](C)CCCCO[C@H]1CN(C)C(=O)Nc1ccc2c(c1)OCO2 | inactive |
| C[C@@H]1CCCCO[C@H](CN(C)S(=O)(=O)c2cccs2)[C@@H](C)CN([C@@H](C)CO)C(=O)c2cc(NC(=O)Cc3ccccc3)ccc2O1 | inactive |
| C[C@@H]1CCCCO[C@@H](CN(C)Cc2ccc(Cl)c(Cl)c2)[C@H](C)CN([C@H](C)CO)C(=O)c2cc(NS(=O)(=O)c3ccc(Cl)cc3)ccc2O1 | active |
| C[C@@H]1CN([C@H](C)CO)C(=O)Cc2cc(NC(=O)Cn3cnnn3)ccc2O[C@H]1CN(C)C(=O)Nc1ccc(F)cc1 | inactive |

| SMILES | cytotoxicity call |
| --- | --- |
| COc1ccc(S(=O)(=O)N(C)C[C@@H]2Oc3ccc(NC(=O)CCN4CCOCC4)cc3C(=O)N([C@@H](C)CO)C[C@H]2C)cc1 | inactive |
| C[C@@H]1CCCCO[C@H](CN(C)C(=O)c2ccccc2)[C@@H](C)CN([C@H](C)CO)C(=O)c2cc(NC(=O)CCC(F)(F)F)ccc2O1 | inactive |
| C[C@@H]1CCCCO[C@H](CN(C)S(=O)(=O)c2cccs2)[C@@H](C)CN([C@@H](C)CO)C(=O)c2cc(NC(=O)CCC(F)(F)F)ccc2O1 | inactive |
| Cc1noc(C)c1S(=O)(=O)Nc1ccc2c(c1)C(=O)N([C@H](C)CO)C[C@@H](C)[C@H](CN(C)S(=O)(=O)c1cn(C)cn1)OCCCC[C@@H](C)O2 | inactive |
| COc1ccc(C2=C(N)C(=O)NC2=O)cc1OC | inactive |
| CC(C)c1nc2cc3sc(C(C)C)nc3cc2s1 | inactive |
| Cc1noc(C)c1NC(=O)N(C)C[C@H]1Oc2ccc(NC(=O)Nc3cccc4ccccc34)cc2C(=O)N([C@H](C)CO)C[C@H]1C | inactive |
| Cc1noc(C)c1NC(=O)Nc1ccc2c(c1)C(=O)N([C@@H](C)CO)C[C@H](C)[C@@H](CN(C)S(=O)(=O)c1cn(C)cn1)O2 | inactive |
| CCCC#Cc1ccc2c(c1)O[C@H](CN(C)S(=O)(=O)c1cccc(OC)c1)[C@H](C)CN([C@@H](C)CO)S2(=O)=O | inactive |
| C[C@H]1CCCCO[C@H](CN(C)Cc2ccccc2)[C@@H](C)CN([C@@H](C)CO)C(=O)c2cc(NS(=O)(=O)c3ccc(F)cc3)ccc2O1 | inactive |
| Cl.NCCS | inactive |
| C[C@@H]1CCCCO[C@H](CN(C)S(=O)(=O)c2ccc(Cl)cc2)[C@@H](C)CN([C@@H](C)CO)C(=O)c2cc(NC(=O)Nc3cccc4ccccc34)ccc2O1 | inactive |
| C[C@@H]1CN([C@@H](C)CO)C(=O)c2cc(NC(=O)CCCN(C)C)ccc2O[C@@H]1CN(C)Cc1ccncc1 | inactive |
| CN(C)CCCNC(=O)C[C@H]1C=C[C@@H](NS(=O)(=O)c2ccccc2)[C@H](CO)O1 | inactive |
| C[C@@H]1CN([C@H](C)CO)C(=O)c2cc(NC(=O)Nc3ccc(F)cc3)ccc2O[C@@H](C)CCCCO[C@H]1CN(C)C(=O)NC1CCCCC1 | inactive |
| CN1C(=O)c2cc(NC(=O)c3cscn3)ccc2OC[C@H]2O[C@@H](CC(=O)N3CCOCC3)CC[C@H]21 | inactive |
| COc1ccc(C[C@H]2c3cc(OC)c(OC)cc3CC[N@+]2(C)CCC(=O)OCCCCCOC(=O)CC[N@+]2(C)CCc3cc(OC)c(OC)cc3[C@@H]2Cc2ccc(OC)c(OC)c2)cc1OC | inactive |
| C[C@@H]1CN([C@@H](C)CO)C(=O)Cc2cc(NS(=O)(=O)c3ccc(Cl)cc3)ccc2O[C@H]1CN(C)Cc1ccc(Oc2ccccc2)cc1 | active |
| COc1cc(OC)nc(N)n1 | inactive |
| CC(C)CC#Cc1ccc2c(c1)O[C@@H](CN(C)CC1CCOCC1)[C@H](C)CN([C@@H](C)CO)S2(=O)=O | active |
